# The list shows a part of the results.
# Tests used:
# Test in all cases: glycan array binding signal (z-score within array); higher = stronger binding
# Details in all cases: glycan notation: IUPAC condensed, linker removed
# Glc(a1-6)Glc(a1-6)Glc = target: Glc(a1-6)Glc(a1-6)Glc
# Summary of the method: (§1)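 Glycan array data came from 3228 arrays in the Consortium for Functional Glycomics database, and only arrays with an available protein sequence were kept. Glycan names were put into IUPAC-condensed notation, and columns mapping to the same glycan were averaged. The binding signal is a within-array Z-score, averaged across arrays of one protein sequence run at different concentrations or buffers and across linkers. A negative Z-score can be read as non-binding.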
# Glc(b1-4)Glc = target: Glc(b1-4)Glc
# Summary of the method: as §1
# Glc(b1-6)Glc = target: Glc(b1-6)Glc
# Summary of the method: as §1
# GlcA(b1-3)Gal = target: GlcA(b1-3)Gal
# Summary of the method: as §1
# GlcA(b1-3)GlcNAc = target: GlcA(b1-3)GlcNAc
# Summary of the method: as §1
# GlcA(b1-6)Gal = target: GlcA(b1-6)Gal
# Summary of the method: as §1
# [1] = target: GlcNAc(a1-3)Gal(b1-4)GlcNAc
# Summary of the method: as §1
# [2] = target: GlcNAc(a1-4)Gal(b1-3)GlcNAc
# Summary of the method: as §1
# [3] = target: GlcNAc(a1-4)Gal(b1-4)GalNAc
# Summary of the method: as §1
# [4] = target: GlcNAc(a1-4)Gal(b1-4)GlcNAc
# Summary of the method: as §1
# [5] = target: GlcNAc(a1-4)Gal(b1-4)GlcNAc(b1-3)Gal(b1-4)Glc
# Summary of the method: as §1
# [6] = target: GlcNAc(a1-4)Gal(b1-4)GlcNAc(b1-3)Gal(b1-4)GlcNAc
# Summary of the method: as §1
# [7] = target: GlcNAc(a1-4)Gal(b1-4)GlcNAc(b1-3)Gal(b1-4)GlcNAc(b1-3)Gal(b1-4)GlcNAc
# Summary of the method: as §1
# [8] = target: GlcNAc(a1-4)Gal(b1-4)GlcNAc(b1-3)Gal(b1-4)[Fuc(a1-3)]GlcNAc(b1-3)Gal(b1-4)[Fuc(a1-3)]GlcNAc
# Summary of the method: as §1
# [9] = target: GlcNAc(a1-6)Gal(b1-4)GlcNAc
# Summary of the method: as §1
# [10] = target: GlcNAc(b1-2)Gal(b1-3)GalNAc
# Summary of the method: as §1
# [11] = target: GlcNAc(b1-2)Man(a1-3)[GlcNAc(b1-2)Man(a1-6)]Man(b1-4)GlcNAc(b1-4)GlcNAc
# Summary of the method: as §1
# [12] = target: GlcNAc(b1-2)Man(a1-3)[GlcNAc(b1-2)Man(a1-6)]Man(b1-4)GlcNAc(b1-4)[Fuc(a1-6)]GlcNAc
# Summary of the method: as §1
# GlcNAc(b1-3)Gal = target: GlcNAc(b1-3)Gal
# Summary of the method: as §1
# [13] = target: GlcNAc(b1-3)Gal(b1-3)GalNAc
# Summary of the method: as §1
# GlcNAc(b1-3)Gal(b1-4)Glc = target: GlcNAc(b1-3)Gal(b1-4)Glc
# Summary of the method: as §1
# [14] = target: GlcNAc(b1-3)Gal(b1-4)GlcNAc
# Summary of the method: as §1
# [15] = target: GlcNAc(b1-3)Gal(b1-4)GlcNAc(b1-3)Gal(b1-4)GlcNAc
# Summary of the method: as §1
# GlcNAc(b1-3)GalNAc = target: GlcNAc(b1-3)GalNAc
# Summary of the method: as §1
# GlcNAc(b1-3)Man = target: GlcNAc(b1-3)Man
# Summary of the method: as §1
# [16] = target: GlcNAc(b1-3)[GlcNAc(b1-4)][GlcNAc(b1-6)]GlcNAc
# Summary of the method: as §1
# [17] = target: GlcNAc(b1-3)[GlcNAc(b1-6)]Gal(b1-4)GlcNAc
# Summary of the method: as §1
# [18] = target: GlcNAc(b1-3)[GlcNAc(b1-6)]GalNAc
# Summary of the method: as §1
# [19] = target: GlcNAc(b1-4)Gal(b1-4)GlcNAc
# Summary of the method: as §1
# GlcNAc(b1-4)GlcNAc = target: GlcNAc(b1-4)GlcNAc
# Summary of the method: as §1
# [20] = target: GlcNAc(b1-4)GlcNAc(b1-4)GlcNAc
# Summary of the method: as §1
# [21] = target: GlcNAc(b1-4)GlcNAc(b1-4)GlcNAc(b1-4)GlcNAc(b1-4)GlcNAc
# Summary of the method: as §1
# [22] = target: GlcNAc(b1-4)GlcNAc(b1-4)GlcNAc(b1-4)GlcNAc(b1-4)GlcNAc(b1-4)GlcNAc
# Summary of the method: as §1
# [23] = target: GlcNAc(b1-4)[GlcNAc(b1-6)]GalNAc
# Summary of the method: as §1
# [24] = target: GlcNAc(b1-6)Gal(b1-4)GlcNAc
# Summary of the method: as §1
# GlcNAc(b1-6)GalNAc = target: GlcNAc(b1-6)GalNAc
# Summary of the method: as §1
# GlcNAc3Prop(b1-4)GlcNAc = target: GlcNAc3Prop(b1-4)GlcNAc
# Summary of the method: as §1
# [25] = target: GlcNAc6S(b1-3)Gal(b1-4)GlcNAc
# Summary of the method: as §1
# Kdn(a2-3)Gal(b1-3)GalNAc = target: Kdn(a2-3)Gal(b1-3)GalNAc
# Summary of the method: as §1
# Kdn(a2-3)Gal(b1-3)GlcNAc = target: Kdn(a2-3)Gal(b1-3)GlcNAc
# Summary of the method: as §1
# Kdn(a2-3)Gal(b1-4)Glc = target: Kdn(a2-3)Gal(b1-4)Glc
# Summary of the method: as §1
# Kdn(a2-3)Gal(b1-4)GlcNAc = target: Kdn(a2-3)Gal(b1-4)GlcNAc
# Summary of the method: as §1
# [26] = target: Kdn(a2-3)Gal(b1-4)[Fuc(a1-3)]GlcNAc
# Summary of the method: as §1
# Kdn(a2-6)Gal(b1-4)GlcNAc = target: Kdn(a2-6)Gal(b1-4)GlcNAc
# Summary of the method: as §1
# [27] = target: Man(a1-2)Man(a1-2)Man(a1-3)Man
# Summary of the method: as §1
binder,measurement,setting,value
"GIINTLQKYYCRVRGGRCAVLSCLPKEEQIGKCSTRGRKCCRRKK [Beta-Defensin 3 (Homo sapiens), P81534]",glycan array binding signal (z-score),Glc(a1-6)Glc(a1-6)Glc,-0.18
same,glycan array binding signal (z-score),Glc(b1-4)Glc,0.443
same,glycan array binding signal (z-score),Glc(b1-6)Glc,-0.231
same,glycan array binding signal (z-score),GlcA(b1-3)Gal,1.72
same,glycan array binding signal (z-score),GlcA(b1-3)GlcNAc,1.66
same,glycan array binding signal (z-score),GlcA(b1-6)Gal,2.3
same,glycan array binding signal (z-score),[1],-0.579
same,glycan array binding signal (z-score),[2],1.21
same,glycan array binding signal (z-score),[3],0.954
same,glycan array binding signal (z-score),[4],-0.605
same,glycan array binding signal (z-score),[5],1.4
same,glycan array binding signal (z-score),[6],2.42
same,glycan array binding signal (z-score),[7],-0.574
same,glycan array binding signal (z-score),[8],2.84
same,glycan array binding signal (z-score),[9],-0.653
same,glycan array binding signal (z-score),[10],-0.486
same,glycan array binding signal (z-score),[11],-0.572
same,glycan array binding signal (z-score),[12],-0.229
same,glycan array binding signal (z-score),GlcNAc(b1-3)Gal,-0.265
same,glycan array binding signal (z-score),[13],-0.317
same,glycan array binding signal (z-score),GlcNAc(b1-3)Gal(b1-4)Glc,-0.267
same,glycan array binding signal (z-score),[14],-0.431
same,glycan array binding signal (z-score),[15],-0.356
same,glycan array binding signal (z-score),GlcNAc(b1-3)GalNAc,-0.296
same,glycan array binding signal (z-score),GlcNAc(b1-3)Man,0.027
same,glycan array binding signal (z-score),[16],-0.457
same,glycan array binding signal (z-score),[17],-0.55
same,glycan array binding signal (z-score),[18],-0.468
same,glycan array binding signal (z-score),[19],-0.618
same,glycan array binding signal (z-score),GlcNAc(b1-4)GlcNAc,-0.569
same,glycan array binding signal (z-score),[20],-0.463
same,glycan array binding signal (z-score),[21],-0.136
same,glycan array binding signal (z-score),[22],-0.326
same,glycan array binding signal (z-score),[23],-0.531
same,glycan array binding signal (z-score),[24],-0.369
same,glycan array binding signal (z-score),GlcNAc(b1-6)GalNAc,-0.454
same,glycan array binding signal (z-score),GlcNAc3Prop(b1-4)GlcNAc,-0.456
same,glycan array binding signal (z-score),[25],-0.665
same,glycan array binding signal (z-score),Kdn(a2-3)Gal(b1-3)GalNAc,1.06
same,glycan array binding signal (z-score),Kdn(a2-3)Gal(b1-3)GlcNAc,-0.066
same,glycan array binding signal (z-score),Kdn(a2-3)Gal(b1-4)Glc,-0.135
same,glycan array binding signal (z-score),Kdn(a2-3)Gal(b1-4)GlcNAc,-0.083
same,glycan array binding signal (z-score),[26],0.297
same,glycan array binding signal (z-score),Kdn(a2-6)Gal(b1-4)GlcNAc,0.152
same,glycan array binding signal (z-score),[27],-0.376

# Source: the supplement of paper PMC8728848
